Measurements as given in the supplement of paper PMC11417369.
± gives the standard deviation of the averaged measurements. This is one part of the list.

System: PfAP2-I AP2 domain 3 (GST-tagged)
Assay: gcPBM binding intensity (ln(normalized median fluorescence intensity)); higher = stronger DNA binding
Summary of the method: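 Using an Agilent 4 × 180k array, primer-extended double-stranded 36-bp intergenic genomic probes and negative controls were exposed for 1 h to GST-fused P. falciparum DNA-binding domains expressed in E. coli. Binding was carried out in 1× PBS with 1% milk, 0.2 mg/ml BSA, 0.5% salmon testes DNA and 0.03% Triton X-100, and protein was detected with Alexa488 anti-GST antibody and a 488 nm scan. Binding intensity is the highest Masliner-normalised natural-log median intensity across replicate spots of either probe orientation.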

“TGGTATTAAGGAGAGGGTACAAAAAAAAAAAAAAAA [XGTACX_site1668]” and “TTTTTTTTTTTAAATACATGCATGTCCTATTTAAAT [TGCATGCA_site494]” are within error of each other in “gcPBM binding intensity (ln)” value: 8.15 ± 0.57 for the first, 7.92 ± 0.89 for the second.

Compared with TTTTTTTGATAAAAGGTGCTACAAGATGAATACATA, “ATAAATAAAAAAAAAAAAAAAAAAAAAAAAAAAATA [CACACA_negctrl_site1064]” is lower in “gcPBM binding intensity (ln)” value: 8.9 ± 0.25 for the first, 7.53 ± 0.37 for the second.

“GTTGTATAAAATAATACATGCATGTCCTACATATAT [TGCATGCA_site162]” and “GTAATATATTTTTATGGTACACGAACTAGCCAAAAA [XGTACX_site6307]” are within error of each other in “gcPBM binding intensity (ln)” value: 8.01 ± 0.59 for the first, 7.95 ± 0.4 for the second.

“CCGCATTTTACAGACACACACAATTTATATTACGGT [CACACA_site6974]” and “AGTAATAACTATATATGTACATATATATATTATTAG [XGTACX_site1113]” are within error of each other in “gcPBM binding intensity (ln)” value: 7.88 ± 0.47 for the first, 7.66 ± 0.47 for the second.

“TAATATATTTATAAGTGTACACATTATATAAATCCC [XGTACX_site8875]” and “AGAGAGAAAGCTATAACATGCAACAATTTTTAGAAA [TGCATGCA_site95]” are within error of each other in “gcPBM binding intensity (ln)” value: 8.1 ± 0.13 for the first, 7.58 ± 0.77 for the second.

“TCAGAGTGAAGTTATACACACATGGTTTTTTTTTTT [CACACA_site2116]” and “AGGAGGATATTACACAGTACCCAGTAACTCTACGGA [XGTACX_site1998]” are within error of each other in “gcPBM binding intensity (ln)” value: 7.32 ± 0.53 for the first, 7.61 ± 0.52 for the second.

“AAGTATGCGTTATATACACACATACATTTATATATC [CACACA_site6207]” and “AAAAATGGTGTTAACACACACATATAAATAAATATA [CACACA_site6412]” are within error of each other in “gcPBM binding intensity (ln)” value: 7.84 ± 0.52 for the first, 7.79 ± 0.27 for the second.

“AACATAAGTAATATTTGTACATATATAATAATATAT [XGTACX_site5123]” and “TAAATGTGAAATTTTATATTTTATATAATATACAAT [CACACA_negctrl_site76]” are within error of each other in “gcPBM binding intensity (ln)” value: 7.49 ± 0.41 for the first, 7.34 ± 0.52 for the second.

“AAGGATCACCCACAAACACACATATATATATATATA [CACACA_site559]” and “CTCTTATACATATTCCTGCACTTATTTTTAAAAACA [GTGCAC_site9620]” are within error of each other in “gcPBM binding intensity (ln)” value: 9.71 ± 0.46 for the first, 9.79 ± 0.3 for the second.

Going from “ATCATATTTTTATGTGTGCACTTTTTTTTTTTTTTT [GTGCAC_site9555]” to “CAATTCTTAAGTTCTTGTACGAAAAACGACAATTTA [XGTACX_site3890]”, the “gcPBM binding intensity (ln)” value falls from 10.25 ± 0.014 to 7.47 ± 0.38.

Compared with “ACACATATATATATATATATATATATATATATATAT [CACACA_negctrl_site1766]”, “AAGAAAAATAATTAGGGTGAAAATATATAGAGTAAA [TGCATGCA_negctrl_site590]” is lower in “gcPBM binding intensity (ln)” value: 9.25 ± 0.52 for the first, 7.68 ± 0.51 for the second.

Compared with “TATTATATAAAATATTTTATTATATCATCTTCTCTA [XGTACX_negctrl_site319]”, “GGTAATAATATGCATAGTACATAATATATATATATA [XGTACX_site6793]” is higher in “gcPBM binding intensity (ln)” value: 7.42 ± 0.59 for the first, 9.29 ± 0.51 for the second.

“ATAATATAAATAATTATACACACTTAATATATATAT [CACACA_site2782]” and “GTATGTATGTATGTATGTACGTATTTATTTATTTAA [XGTACX_site726]” are within error of each other in “gcPBM binding intensity (ln)” value: 8.66 ± 0.16 for the first, 8.77 ± 0.28 for the second.

Going from “TATATATATATATATACACACATATATATATTTTTC [CACACA_site3983]” to “AATACCTATGGAATTAATAATATGTGTACAGACACA [TGCATGCA_negctrl_site547]”, the “gcPBM binding intensity (ln)” value falls from 9.57 ± 0.44 to 7.945 ± 0.064.

“AACAATGGATTATTCACACATAAAAAAATTCACATT [CACACA_site5437]” and “ATCATTATATTATGGTGTACCCATATATAATTATCA [XGTACX_site551]” are within error of each other in “gcPBM binding intensity (ln)” value: 7.55 ± 0.54 for the first, 7.83 ± 0.28 for the second.

“CATTAAACCGTGGGAGCACACACACCCACCCACCCA [CACACA_site8000]” and “AATTTAAAGAATTGTAGTACAATGAAATATATATAA [XGTACX_site7970]” are within error of each other in “gcPBM binding intensity (ln)” value: 8.49 ± 0.76 for the first, 7.89 ± 0.44 for the second.

“AAAAAAATATATATATGTACATAACTTTGTTGTGAT [XGTACX_site5243]” and “TTTGAACATTTTGCAAGTACAAAAAAATAATATATC [XGTACX_site8079]” are within error of each other in “gcPBM binding intensity (ln)” value: 7.71 ± 0.44 for the first, 7.82 ± 0.47 for the second.

“TGTTAAATTATTTATCAGATTATTATTTGTAAATAA [CACACA_negctrl_site1535]” and “GGAACTTAAAAAAAATGTACTTATAAAAAAGGAAAT [XGTACX_site8186]” are within error of each other in “gcPBM binding intensity (ln)” value: 7.17 ± 0.47 for the first, 7.82 ± 0.6 for the second.

Going from “AAGAAAAGCATAGATGCACACATATATATATATATA [CACACA_site8675]” to “AACATGCAAACATGCACACAGAAAAAAAAAATATAT [CACACA_site1565]”, the “gcPBM binding intensity (ln)” value falls from 9.485 ± 0.078 to 8.43 ± 0.3.

“TTACACATACATATGTGGGAAAATATTGCTACATAT [CACACA_negctrl_site463]” and “TTTTCTACATCTTGTTGTACGAAAAATAAAAAAAAT [XGTACX_site4620]” are within error of each other in “gcPBM binding intensity (ln)” value: 7.8 ± 0.72 for the first, 8.09 ± 0.28 for the second.

First: AGTACGTAAATTATAATACACACTATAGGATATTCT [CACACA_site2559]
Second: TTTTAAACAGGACACACACACATATATATATATATA [CACACA_site4664]
The “gcPBM binding intensity (ln)” value of the first is lower: 7.8 ± 0.69 for the first, 9.43 ± 0.46 for the second.

“AAAATTATATATTTTAGTACATAAAATATTGACATA [XGTACX_site2581]” and “ATGTAATGTTATGTTATGTTTTTTTTTTTTTTGTGT [CACACA_negctrl_site1264]” are within error of each other in “gcPBM binding intensity (ln)” value: 7.53 ± 0.5 for the first, 7.68 ± 0.27 for the second.

“GGAATATGTATATTTTGTACGTATACATTTTTTGGG [XGTACX_site7681]” and “GTTATTGTAAAAAGATTACACACGTTCTATATACTT [CACACA_site2473]” are within error of each other in “gcPBM binding intensity (ln)” value: 8.07 ± 0.83 for the first, 7.8 ± 0.62 for the second.

“GATATATTTTATATATGTACATACAGTGGTAAATAT [XGTACX_site1324]” and “TTTATACAAAAAAACAAAATCAAACAAAAAAAAAAA [CACACA_negctrl_site252]” are within error of each other in “gcPBM binding intensity (ln)” value: 8.35 ± 0.43 for the first, 8.11 ± 0.95 for the second.

“TATATATGTATCATTACACACATGTATACTTATTTG [CACACA_site4138]” and “TGTATAAATATATATACACACATATTTATATATATA [CACACA_site755]” are within error of each other in “gcPBM binding intensity (ln)” value: 7.64 ± 0.46 for the first, 8.29 ± 0.66 for the second.

“TACATTTGTATAAATAGTACGCGAAAACAAAAAAAA [XGTACX_site6246]” and “ATATATGTGCCCATATATATATATATAAATATATGT [GTGCAC_negctrl_site226]” are within error of each other in “gcPBM binding intensity (ln)” value: 8.21 ± 0.43 for the first, 7.97 ± 0.36 for the second.

“ATTTCCCCTTTTTATTGTACATTTTTATTTGTTACT [XGTACX_site4845]” and “TAAAAAAAAACAGAAACACACATTATTCATATATAT [CACACA_site2049]” are within error of each other in “gcPBM binding intensity (ln)” value: 8.2 ± 0.91 for the first, 7.82 ± 0.45 for the second.

Compared with “AAAATATTTATGTATGCATGTTGTAATATTTCTTTA [TGCATGCA_site296]”, “TATGCTATATATTTAGTGCATATATATAACTTTTAT [GTGCAC_site9902]” is higher in “gcPBM binding intensity (ln)” value: 7.96 ± 0.65 for the first, 10.1 ± 0.36 for the second.
